Results taken from the supplement of paper PMC12217912.
This is one part of the list. The full chains were built here from the parent and the listed change. Inactive controls read about 0.05.

B1: TEV protease; numbered along this chain (parent)
chain: MGESLFKGPRDYNPISSSICHLTNESDGHTTSLYGIGFGPFIITNKHLFRRNNGTLVVQSLHGVFKVKDTTTLQQHLVDGRDMIIIRMPKDFPPFPQKLKFREPQREERICLVTTNFQTKSMSSMVSDTSCTFPSGDGIFWKHWIQTKDGQCGSPLVSTRDGFIVGIHSASNFTNTNNYFTSVPKNFMELLTNQEAQQWVSGWRLNADSVLWGGHKVFMVKPEEPFQPVKEATQL

Variants of: B1
Assay: raw area under fraction-flipped curve 0-4 h after induction (AUC4h, not background-subtracted), DNA-recorder readout of cleavage of the substrate (dimensionless); higher = more cleavage of the substrate by the protease variant
Conditions: temperature: 34 °C; time window: 0-4 h after rhamnose induction
Experimental: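 In vivo DNA recorder in E. coli TOP10(DE3) ΔrhaA at 34 °C. Each TEVp single-site mutant (parent TEVp 0) is paired with a single-site variant of the 7-mer TEVs (canonical ENLYFQ|S). The substrate sits between flexible linkers in a Bxb1-sfGFP-TEVs-SsrA fusion, so cleavage stabilises Bxb1 and speeds flipping of a recombination array, read by NGS. The value is the raw area under the fraction-flipped curve over 0-4 h after rhamnose induction (AUC4h), with ≥20 reads per time point. It is not background-subtracted; inactive controls average about 0.047.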
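Further: Bxb1 expression induced with 0.2% (w/v) L-rhamnose at OD600 near 0.5, cultures sampled hourly, flipped fraction per protease–substrate barcode pair counted by paired-end Illumina sequencing.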

Row | Variant | area with substrate ENLAFQS | area with substrate ENLDFQS | area with substrate ENLFFQS | area with substrate ENLGFQS | area with substrate ENLHFQS | area with substrate ENLIFQS | area with substrate ENLKFQS | area with substrate ENLLFQS | area with substrate ENLNFQS | area with substrate ENLPFQS | area with substrate ENLQFQS | area with substrate ENLRFQS | area with substrate ENLTFQS | area with substrate ENLVFQS | area with substrate ENLWFQS | area with substrate ENLCFQS | area with substrate ENLEFQS | area with substrate ENLMFQS | area with substrate ENLSFQS
1 | MGESLFKGPRDYNPISSSICHLTNESDGHTTSLYGIGFGPFIITNKHLFRRNNGTLVVQSLHGVFKAKDTTTLQQHLVDGRDMIIIRMPKDFPPFPQKLKFREPQREERICLVTTNFQTKSMSSMVSDTSCTFPSGDGIFWKHWIQTKDGQCGSPLVSTRDGFIVGIHSASNFTNTNNYFTSVPKNFMELLTNQEAQQWVSGWRLNADSVLWGGHKVFMVKPEEPFQPVKEATQL [V67A] | 0.0679 | 0.0535 | 0.0968 | 0.0657 | 0.0929 | 0.0785 | 0.08 | 0.0768 | 0.063 | 0.0653 | 0.0618 | 0.0663 | 0.0745 | 0.0739 | 0.0633 | – | – | – | –
2 | MGESLFKGPRDYNPISSSICHLTNESDGHTTSLYGIGFGPFIITNKHLFRRNNGTLVVQSLHGVFKVADTTTLQQHLVDGRDMIIIRMPKDFPPFPQKLKFREPQREERICLVTTNFQTKSMSSMVSDTSCTFPSGDGIFWKHWIQTKDGQCGSPLVSTRDGFIVGIHSASNFTNTNNYFTSVPKNFMELLTNQEAQQWVSGWRLNADSVLWGGHKVFMVKPEEPFQPVKEATQL [K68A] | 0.0684 | 0.0704 | 0.0898 | 0.0487 | 0.0635 | 0.0416 | – | – | 0.0587 | 0.0626 | – | 0.074 | 0.0604 | – | – | 0.0667 | 0.0633 | – | –
3 | MGESLFKGPRDYNPISSSICHLTNESDGHTTSLYGIGFGPFIITNKHLFRRNNGTLVVQSLHGVFKVKDTTTLQQHLVDGRDMIIIRMPKDFPPFPQKLKFMEPQREERICLVTTNFQTKSMSSMVSDTSCTFPSGDGIFWKHWIQTKDGQCGSPLVSTRDGFIVGIHSASNFTNTNNYFTSVPKNFMELLTNQEAQQWVSGWRLNADSVLWGGHKVFMVKPEEPFQPVKEATQL [R102M] | 0.0827 | 0.052 | – | – | – | – | 0.0562 | 0.0615 | – | 0.0599 | 0.0477 | – | – | – | 0.0569 | 0.0609 | 0.0597 | 0.0663 | 0.0633
4 | MGESLFKGPRDYNPISSSICHLTNESDGHTTSLYGIGFGPFIITNKHLFRRNNGTLVVQSLHGVFKVKDTTTLQQHLVDGRDMIIIRMPKDFPPFPQKLKFREPQREERICLVTTNFQTKSMSSMVSDTSCTFPKGDGIFWKHWIQTKDGQCGSPLVSTRDGFIVGIHSASNFTNTNNYFTSVPKNFMELLTNQEAQQWVSGWRLNADSVLWGGHKVFMVKPEEPFQPVKEATQL [S135K] | 0.0724 | 0.0647 | 0.0653 | 0.0739 | – | 0.0695 | – | 0.0723 | 0.063 | 0.0662 | 0.0562 | 0.0588 | 0.0597 | – | 0.037 | 0.0648 | 0.0639 | 0.0693 | –
5 | MGESLFKGPRDYNPISSSICHLTNESDGHTTSLYGIGFGPFIITNKHLFRRNNGTLVVQSLHGVFKVKDTTTLQQHLVDGRDMIIIRMPKDFPPFPQKLKFREPQREERICLVTTNFQTKSMSSMVSDTSCTFPSGDGIFWKHWIQTKDGQCGSPLVSTRDGFIVGIHSASNFTNTNNYFTSVPKNFMELLTNQEAQQWVGGWRLNADSVLWGGHKVFMVKPEEPFQPVKEATQL [S201G] | 0.0653 | – | 0.0591 | – | 0.0515 | 0.0662 | 0.052 | 0.0622 | 0.068 | 0.0482 | 0.0593 | 0.0705 | 0.0647 | 0.0762 | – | 0.0661 | – | 0.0677 | 0.0623
6 | MGESLFKGPRDYNPISSSICHLTNESDGHTTSLYGIGFGPFIITNKHLFRRNNGTLVVQSLHGVFKVKDTTTLQQHLVDGRDMIIIRMPKDFPPFPQKLKFREPQREERICLVTTNFQTKSMSSMVSDTSCTFPSGDGIFWKHWIQTKDGQCGSPLVSTRDGFIVGIHSASNFTNTNNYFTSDPKNFMELLTNQEAQQWVSGWRLNADSVLWGGHKVFMVKPEEPFQPVKEATQL [V183D] | 0.0594 | 0.0407 | 0.0466 | – | 0.0626 | – | 0.0643 | – | 0.0526 | 0.0388 | – | 0.055 | – | 0.0536 | – | 0.0523 | 0.0439 | 0.0633 | –
7 | MGESLFKGPRDYNPISSSICHSTNESDGHTTSLYGIGFGPFIITNKHLFRRNNGTLVVQSLHGVFKVKDTTTLQQHLVDGRDMIIIRMPKDFPPFPQKLKFREPQREERICLVTTNFQTKSMSSMVSDTSCTFPSGDGIFWKHWIQTKDGQCGSPLVSTRDGFIVGIHSASNFTNTNNYFTSVPKNFMELLTNQEAQQWVSGWRLNADSVLWGGHKVFMVKPEEPFQPVKEATQL [L22S] | 0.0494 | 0.0443 | 0.0531 | – | 0.0506 | 0.0498 | 0.0513 | 0.0592 | 0.0432 | 0.0455 | 0.0604 | 0.0511 | 0.0467 | 0.0442 | 0.0367 | – | 0.0415 | 0.0595 | 0.0478
8 | MGESLFKGPRDYNPISSSICHLTNESDGHTTSLYGIGFGPFIITNKHLFRRNNGTLVVQSLHGVFKVKDTTTLQQHLVDGRDMIIIRMPKDFPPFPQKLKFREPQREERICLVTTNFQTKSMSSMVSDTSCTFPSGDGIFWKHWIQTKDGQCGSPLVSTRDGFIVGIHDASNFTNTNNYFTSVPKNFMELLTNQEAQQWVSGWRLNADSVLWGGHKVFMVKPEEPFQPVKEATQL [S169D] | 0.0758 | 0.0652 | 0.0586 | 0.0662 | – | – | 0.0618 | 0.05 | 0.0629 | 0.073 | 0.0514 | 0.0761 | – | 0.0538 | 0.0584 | 0.0505 | 0.0563 | – | 0.0694
9 | MGESLFKGPRDYNPISSSICHLTNESDGHTTSLYGIGFGPFIITNKHLFRRNNGTLVVQSLHGVFKVKDRTTLQQHLVDGRDMIIIRMPKDFPPFPQKLKFREPQREERICLVTTNFQTKSMSSMVSDTSCTFPSGDGIFWKHWIQTKDGQCGSPLVSTRDGFIVGIHSASNFTNTNNYFTSVPKNFMELLTNQEAQQWVSGWRLNADSVLWGGHKVFMVKPEEPFQPVKEATQL [T70R] | 0.0693 | 0.0653 | – | – | – | – | 0.0591 | – | 0.0625 | 0.0537 | – | 0.0563 | – | 0.0589 | 0.0658 | – | – | – | 0.0681
